Reference: PubChem BioAssay AID1345083 (National Center for Advancing Translational Sciences (NCATS), 2018)
Screen size: about 94,000 compounds; about 6,200 (6.6%) were called active. The inconclusive results got no clear call from the source; some entries with a clear call stand among them for comparison. The call rests on the fitted dose curve; in most records, active means well fitted inhibition curve with a large enough effect; inconclusive means small, poorly fitted or top-dose-only effect; inactive means flat fitted curve, though single readings scatter. Where the call is inconclusive, the potency comes from a doubtful curve fit.

experiment: Cytotoxic Profiling in HEK 293 Cell Line of Diverse Libraries Using Quantitative High-Throughput Screening; settings: HEK 293 viability, ATP luminescence (CellTiter-Glo), 48-72 h; series mostly up to 115 µM; further: nearly all actives have a fitted effect of over 60% in size
In short: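 HEK 293 cells seeded at 250 cells/well were exposed to compound for 48 or 72 hr at 37 degree Celsius. Viability taken as ATP content by CellTiter-Glo luminescence.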
Potency means the concentration at half of the fitted maximal effect; tags describe the fitted curve by direction and shape.

SMILES | Potency
C[S+](=O)([O-])c1cccc(-c2ccc3ncn(-c4ccc(F)cc4F)c(=O)c3n2)c1 | inconclusive: 100 µM [inhibitor, partial curve, poor fit]
Cn1ncc2c(C(=O)Nc3ccccc3F)cc(-c3cccc(C(F)(F)F)c3)nc21 | inactive
CCN(C(=O)CCC(=O)N1CCc2nc3cc(-c4ccc(OC)cc4)[nH]n3c(=O)c2C1)c1ccccc1 | inconclusive: 17.8 µM [inhibitor, full curve, poor fit]
CC(C)(C)C(=O)N1CCCC(C(=O)N2CCCC(c3nc4ncccc4[nH]3)C2)C1 (configuration not stated) | inconclusive: 50.1 µM [inhibitor, partial curve, poor fit]
O=c1[nH]c(C2CCCN(Cc3cccc(-c4ccc(F)cc4F)c3)C2)nc2ccc(F)cc12 (configuration not stated) | active: 39.8 µM
Cc1ccc(-c2cc3c(=O)n(CCNC(=O)Cc4ccsc4)ccn3n2)c(C)c1 | inconclusive: 50.1 µM [inhibitor, partial curve, poor fit]
O=C(Cc1cccc(Cl)c1)N1CC(c2nc(Cc3ccccc3)no2)C1 | inconclusive: 89.1 µM [inhibitor, single point]
O=[S+]1([O-])NC2(CCCN(Cc3ccc(C(F)(F)F)cc3)C2)CNc2ccccc21 (configuration not stated) | inconclusive: 50.1 µM [inhibitor, partial curve, poor fit]
CN1CC(=O)N(c2ccc(Cl)cc2)Cc2c(NCCCc3ccccc3)ncnc21 | inconclusive: 50.1 µM [inhibitor, partial curve, poor fit]
COc1ccccc1-c1cccc(CN2CCC(N[S+](C)(=O)[O-])CC2)c1 | inconclusive: 79.4 µM [inhibitor, single point]
O=C(Nc1ccc(Oc2ccccc2)cc1)O[C@@H]1CO[C@H]2[C@@H]1OC[C@@H]2NS(=O)(=O)c1ccc2ccccc2c1 | inconclusive: 56.2 µM [inhibitor, partial curve, poor fit]
COc1ccc(NC(=O)Cn2c(N(C)Cc3ccccc3)nc(C)cc2=O)cc1OC | inconclusive: 14.1 µM [inhibitor, full curve, poor fit]
Clc1ccccc1C1(c2ccnc(NCCc3ccncc3)n2)CCNCC1 | inconclusive: 50.1 µM [inhibitor, partial curve, poor fit]
CCOCCNc1ncnc2c1CN(C1CCCCC1)C(=O)CN2C | inactive
COc1ccc(NC(=O)Cn2ccn3nc4c(c3c2=O)CCCCC4)cc1OC | inconclusive: 50.1 µM [inhibitor, partial curve, poor fit]
Cc1ccc(CN2CC(Oc3ccccc3C(=O)NCc3ccccc3)C2)o1 | inconclusive: 56.2 µM [inhibitor, partial curve, poor fit]
O=c1[nH]c(N2CCOCC2)nc2c1CCN(Cc1ccc(C(F)(F)F)cc1)CC2 | inconclusive: 89.1 µM [inhibitor, single point]
Cc1ccc(S(=O)(=O)N2CCN(C3CCN(CCC(C)C)C3=O)CC2)cc1Cl (configuration not stated) | inconclusive: 89.1 µM [inhibitor, single point]
O=C(Cc1n[nH]c(=O)c2ccccc12)NC1CCCc2c1[nH]c1c(Cl)cccc21 (configuration not stated) | inactive
CC(=O)Nc1cccc(C(=O)N2CCC(c3n[nH]c(=O)n3-c3ccccc3)CC2)c1 | inactive
O=C(Cc1cccc(Cl)c1)N1CCCC(c2nn(-c3ccccc3)c(=O)[nH]2)C1 (configuration not stated) | active: 44.7 µM

SMILES | Potency
C[C@@]12CO[C@@H](Cc3ccccc3)O[C@@H]1CC[C@]1(C)C2CC[C@@H](O)[C@H]1CC(=O)NCc1ccccc1 (some centres not stated) | inconclusive: 50.1 µM [inhibitor, partial curve, poor fit]
CN1CCN(c2nc3c(c(=O)[nH]2)CCN(Cc2cccc(Br)c2)CC3)CC1 | inconclusive: 79.4 µM [inhibitor, partial curve]
COc1ccc(-c2cc(N3CCC(NC(=O)c4ccc5c(c4)OCO5)C3)n[nH]2)cc1 (configuration not stated) | active: 79.4 µM
C[C@@H](NC(=O)C1=C[C@@H](NC(=O)Nc2cccc(F)c2)[C@@H](O)[C@H](O)C1)C(N)=O | inactive
CN1CCC(OC2CCN(S(=O)(=O)c3ccccc3C(F)(F)F)CC2)CC1 | inactive
COc1ccccc1-c1cccc(CN2CCCC(C(=O)NCC(F)F)C2)c1 (configuration not stated) | active: 39.8 µM
Clc1cc(NC2CCCCC2)n2nccc2n1 | inconclusive: 100 µM [inhibitor, partial curve, poor fit]
CN(Cc1cccc2ccccc12)C1CCCc2ccccc21 (configuration not stated) | inactive
Cc1cn2nc(C(=O)N3CCN(C(=O)c4ccco4)CC3)cc2c(N2CCCC2)n1 | inactive
COc1ccc(C(=O)NC(C(=O)NCC(C)C)C2CCN(C(=O)c3ccccc3C)CC2)cc1 (configuration not stated) | inactive
COc1cccc(Nc2cc(-c3cccs3)nc3c(C)noc23)c1 | active: 100 µM
COc1ccc(C(=O)NCc2nnc3ccc(-c4ccc(C)c(C)c4)nn23)cc1 | inconclusive: 100 µM [inhibitor, single point]
CCCCN1C(=O)c2ccccc2C(C(=O)Nc2ccccn2)C12CCCC2 (configuration not stated) | inconclusive: 56.2 µM [inhibitor, partial curve, poor fit]
COc1ccc(-c2ccc(C(=O)NCC(F)(F)F)c(Cl)c2)nn1 | inconclusive: 126 µM [inhibitor, single point]
COc1ccc2ccc(OCc3nc(C(=O)N4CCNC(=O)C4C)co3)cc2c1 (configuration not stated) | inconclusive: 31.6 µM [inhibitor, partial curve, poor fit]
Fc1ccc(OCC2CCCN(c3ccc(Cn4ccnc4)cn3)C2)cc1 (configuration not stated) | inconclusive: 79.4 µM [inhibitor, partial curve, poor fit]
NC(=O)[C@@H]1CN(C(=O)c2cccc(F)c2)C[C@H]1COc1ccccc1 | inconclusive: 35.5 µM [inhibitor, single point]
COc1cc(-c2nc(C3CC(=O)N(c4ccc(Cl)cc4)C3)no2)cc(OC)c1OC (configuration not stated) | inconclusive: 100 µM [inhibitor, single point]
O=C(Nc1cccc(-c2nnc3n2CCCC3)c1)c1cccc(Cl)c1 | inconclusive: 89.1 µM [inhibitor, single point]
C[C@]1(NC(=O)Cc2ccccc2)OC[C@@H]2CC[C@H](C(=O)Nc3ccc(OC(F)(F)F)cc3)N2C1=O | inactive
CCN(Cc1cccnc1)C(=O)c1cc(-c2cnn(CC)c2)nc2cc(C)ccc12 | inactive

SMILES | Potency
Cc1cccc(N2CCN(C(=O)c3cc4n(n3)CC(c3ccc(Cl)cc3)OC4)CC2)c1 (configuration not stated) | inconclusive: 56.2 µM [inhibitor, partial curve, poor fit]
Cc1cc(C2CCCN2C(=O)C2CCN(C(=O)C3CCCC3)CC2)on1 (configuration not stated) | inactive
CCN(Cc1ccccc1)C(=O)CC1CCCN(c2cn[nH]c(=O)c2)C1 (configuration not stated) | inactive
c1ccc(-n2cc(CN3CCN(c4nc5ccccc5o4)CC3)nn2)cc1 | inconclusive: 56.2 µM [inhibitor, partial curve, poor fit]
Cc1ccc(S(=O)(=O)N2CCCC(CCC(=O)NCc3ccccc3)C2)cc1 (configuration not stated) | inconclusive: 56.2 µM [inhibitor, partial curve, poor fit]
N#Cc1ccc(C2c3nc[nH]c3CCN2Cc2ccc3ccccc3n2)cc1 (configuration not stated) | inconclusive: 79.4 µM [inhibitor, single point]
Cc1cc(F)ccc1S(=O)(=O)N1C[C@H](C2CC2)[C@@H](N)C1 | inconclusive: 89.1 µM [inhibitor, single point]
O=c1cc(N2CCOCC2)oc2c(-c3ccc(F)c(Cl)c3)nccc12 | inactive
Cc1c(C2c3nc[nH]c3CCN2Cc2ccc(CO)o2)oc2ccccc12 (configuration not stated) | inconclusive: 28.2 µM [inhibitor, full curve]
COC(=O)CNC(=O)C1CCCN1Cc1cccc(-c2ccc(C)c(Cl)c2)c1 (configuration not stated) | active: 39.8 µM
COc1ccc(CC(=O)N2C[C@H](C(N)=O)[C@H]3c4ccccc4N(CC(=O)N(C)C)C(=O)[C@]32C)cc1 | inactive
O=C(NCCNC(=O)c1ccccc1Cl)c1cccc(-c2ccsc2)c1 | inconclusive: 89.1 µM [inhibitor, single point]
Cn1ccnc1CN1C[C@H]2CN(C(=O)NCc3ccccc3)CCN2C1=O | inactive
COC(=O)c1cccc(NC(=S)N[C@H]2CO[C@H]3[C@@H]2OC[C@@H]3n2nnnc2-c2ccc3c(c2)OCO3)c1 | inconclusive: 56.2 µM [inhibitor, partial curve, poor fit]
O=C(CN1C(=O)NC2(CCCCC2)C1=O)Nc1ccc(Br)cc1F | inconclusive: 39.8 µM [inhibitor, partial curve, poor fit]
COc1ccc(Cn2c(-c3cccc(Cl)c3)nc(C)c(CCO)c2=O)cc1F | inconclusive: 56.2 µM [inhibitor, partial curve, poor fit]
Cc1cc(C)n(CCC(=O)NCC23CCCC=C2N(CC2CC2)C(=O)CC3)n1 (configuration not stated) | inconclusive: 56.2 µM [inhibitor, partial curve, poor fit]
COCCN1C(=O)CCc2cc(NC(=O)c3ccc(Cl)s3)ccc21 | inconclusive: 35.5 µM [inhibitor, partial curve, poor fit]
COCCN1Cc2ccc(NCC(C)C)nc2C(C)(C(=O)NC2CCC2)C1 (configuration not stated) | inconclusive: 100 µM [inhibitor, partial curve]
CN1CCC(Nc2ccc3c(n2)CN(Cc2ccc(F)cc2)C(=O)CO3)CC1 | inconclusive: 44.7 µM [inhibitor, partial curve, poor fit]
